Source: article PMC4336329 (PLoS ONE, 2015)
Among all 310,000 compounds or so, about 2,200 (0.71%) showed an effect of 50% or more. The effect is printed as a negative number. Some of the results follow.

What follows are compounds tested against human ether-à-go-go-related gene (hERG) potassium channel (human, UniProt Q12809) (assay: primary screen, population patch clamp on CHO cells stably expressing hERG).
Sequence of human ether-à-go-go-related gene (hERG) potassium channel (Q12809 whole entry, looked up): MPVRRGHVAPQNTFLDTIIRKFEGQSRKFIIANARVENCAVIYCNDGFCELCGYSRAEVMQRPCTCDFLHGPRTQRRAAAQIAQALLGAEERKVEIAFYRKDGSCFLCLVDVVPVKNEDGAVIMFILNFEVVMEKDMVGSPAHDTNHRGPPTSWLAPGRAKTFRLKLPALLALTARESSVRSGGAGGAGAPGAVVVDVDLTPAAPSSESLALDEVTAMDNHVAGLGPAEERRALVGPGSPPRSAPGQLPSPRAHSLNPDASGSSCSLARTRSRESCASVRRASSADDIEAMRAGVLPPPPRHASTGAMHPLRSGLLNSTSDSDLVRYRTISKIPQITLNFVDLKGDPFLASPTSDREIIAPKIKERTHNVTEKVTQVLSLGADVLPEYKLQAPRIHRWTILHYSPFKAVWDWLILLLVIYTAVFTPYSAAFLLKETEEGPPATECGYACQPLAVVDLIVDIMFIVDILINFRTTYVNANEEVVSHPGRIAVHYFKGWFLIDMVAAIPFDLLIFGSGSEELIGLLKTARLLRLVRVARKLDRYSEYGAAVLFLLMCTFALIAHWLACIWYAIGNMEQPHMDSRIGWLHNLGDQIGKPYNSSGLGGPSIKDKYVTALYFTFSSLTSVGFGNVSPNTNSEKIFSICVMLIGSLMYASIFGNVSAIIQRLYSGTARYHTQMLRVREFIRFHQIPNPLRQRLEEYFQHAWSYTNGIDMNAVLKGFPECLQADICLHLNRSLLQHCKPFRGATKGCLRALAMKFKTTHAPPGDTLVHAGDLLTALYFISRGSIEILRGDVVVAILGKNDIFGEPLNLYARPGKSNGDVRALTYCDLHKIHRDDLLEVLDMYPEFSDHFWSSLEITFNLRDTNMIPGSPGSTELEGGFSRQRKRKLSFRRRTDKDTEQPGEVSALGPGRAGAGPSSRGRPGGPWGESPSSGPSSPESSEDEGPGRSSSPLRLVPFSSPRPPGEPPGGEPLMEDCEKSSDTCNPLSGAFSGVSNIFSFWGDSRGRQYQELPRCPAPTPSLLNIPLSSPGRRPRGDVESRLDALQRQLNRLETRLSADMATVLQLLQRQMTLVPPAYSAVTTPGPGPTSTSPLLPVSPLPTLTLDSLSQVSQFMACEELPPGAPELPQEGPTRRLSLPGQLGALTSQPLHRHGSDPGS

Structure (SMILES) | hERG current change (%, negative = inhibition) at 1uM
COc1ccc(CCNC(=O)CCCN2C(=O)C(c3ccccc3)Oc3cccnc32)cc1OC (centres unmarked) | 5.91%
O=C(/C=N/O)NCc1ccncc1 | 16.4%
CN(Cc1ccccc1)C(=C(Cl)Cl)/C(=C1/NCCN1C)[N+](=O)[O-] | 15.2%
O=c1[nH][nH]c2cc(=O)n(-c3cccc(C(F)(F)F)c3)nc12 | -3.32%
COC(=O)c1ccc(NC(=O)CSc2nncn2C)cc1 | 12.6%
CN1CCN(C(c2ccc(F)cc2)c2nnnn2Cc2cccs2)CC1.Cl (centres unmarked) | 3.46%
O=c1cccc2n1C[C@H]1C[C@@H]2CN2CCCC[C@@H]12 | 6.46%
COc1cc2[nH]c(=O)n(CCCC(=O)N3CC=C(c4ccccc4)CC3)c(=O)c2cc1OC | 2.2%
Cn1nc(CSc2ccccc2)c(C=O)c1Cl | 9.69%
CCOc1cccc(C(=O)Nc2cccc(-c3nc4ncccc4o3)c2C)c1 | 3.28%
CN(C)CC/C=C1\c2ccc(F)cc2Sc2cc(F)c(Cl)cc21.Cl | 13.9%
COC(=O)c1cc(=O)c2c([N+](=O)[O-])ccc(OC)c2o1 | -1.55%
Cc1cc(C)cc(C(=O)NC(CC(N)=O)c2ccc(NC3CCCCCC3)c([N+](=O)[O-])c2)c1 (centres unmarked) | 7.44%
CCCn1c(CN2CCN(C(=O)OCC)CC2)nc2cc(NC(=O)CC)ccc21 | 14.6%
Cn1c(CCN2CCCCC2)nc2cc(NC(=O)COc3ccccc3)ccc21 | -51.9%
Cc1ccc(C(C)C)c(OC(=O)/C=C/c2ccccc2)c1 | -0.885%
C=C(C)COc1ccc(-c2[nH]ncc2-c2ccc(OC)c(OC)c2)c(O)c1 | 2.3%
COc1ccc(C(O)(C2CCCCC2)C(CN2CCOCC2)c2ccccc2)cc1.Cl (centres unmarked) | 10.6%
COc1cccc(Cn2nnc(C(=O)NCc3ccc4c(c3)OCO4)c2N)c1 | -2.42%
Cl.NC(N)=Nc1nc(-c2ccccc2)c2cc(Cl)ccc2n1 | -15.6%
CCCCN(CCCC)CC1OCc2ccccc2CO1 | -0.951%
O=C(Cn1nc(-c2ccc(F)cc2)ccc1=O)Nc1ccc(C(=O)NC2CC2)cc1 | 2.4%

Structure (SMILES) | hERG current change (%, negative = inhibition) at 1uM
CCc1nnc(NC(=O)C2Cc3ccccc3CN2S(=O)(=O)c2cccs2)s1 (centres unmarked) | 16.3%
CN(C(=O)CN(CCO)CC(=O)N(C)C(C)(C)Cc1ccccc1)C(C)(C)Cc1ccccc1 | 7.94%
Cc1ccc(NC(=S)Nn2cnnc2)cc1 | 10.7%
CCCOc1ccc(C(CC(=O)O)NS(=O)(=O)c2ccc(NC(C)=O)cc2)cc1 (centres unmarked) | 9.29%
O=C(OCC(=O)N1CCOCC1)c1ccccc1SCC(=O)N1CCCC1 | 5.78%
CCc1nnc(NC(=O)c2ccc(N3C(=O)CCC3=O)cc2)s1 | 11.3%
CC(C)NC(C)Cc1ccc(I)cc1.Cl (centres unmarked) | -11.4%
O=C(CSc1n[nH]c(=O)[nH]c1=O)c1ccccc1[N+](=O)[O-] | 9.33%
CC(=O)N(C)c1ccc(NC(=O)Nc2cccc3ccccc23)cc1 | 7.56%
Cc1ccc(Nc2nc(-c3ccc(C)cc3)c(CC(=O)O)s2)cc1 | 8.45%
COc1ccc(CC(=O)O/N=C(\N)c2ccccc2)cc1OC | 9.23%
COCCCNC(=S)NNC(=O)c1ccc(S(=O)(=O)N2CCC(C)CC2)cc1 | 18.5%
COc1ccc(NC(=O)COC(=O)c2ccc(-n3cnnn3)cc2)cc1Cl | 12.5%
COC(=O)CN1C(=O)[C@H]2[C@@H](c3ccc(C)o3)N3C(=O)CN(Cc4ccccc4)C(=O)[C@@]3(Cc3ccccc3)[C@H]2C1=O | 0.0835%
CS(=O)(=O)NCCNC(=O)c1cc(OCC(F)(F)F)ccc1OCC(F)(F)F | 3.72%
Cc1ccc(-c2nnc(Nc3ccc(C(=O)N(C)C)cc3)c3ccccc23)cc1S(=O)(=O)NCC1CCCO1 (centres unmarked) | -3.87%
COc1ccc(/C=N/n2cnc3c([nH]c4ccccc43)c2=O)cc1CO | 6.11%
CCOc1cc(C(=S)N2CCN(C)CC2)ccc1OCC(=O)N1CCOCC1 | 10.1%
CN(C)c1ccc(CNCc2cccnc2)cc1 | 11%
CN(C)CCCNC(=S)Nc1ccc(Br)cc1 | 10.3%
CCOc1ccc(C2CC(=O)N(Nc3ccc([N+](=O)[O-])cc3[N+](=O)[O-])C2=O)cc1 (centres unmarked) | -22.6%
CCOC(=O)N1CCC(N2CC34C=CC(O3)C(C(=O)Nc3ccc(OCC)cc3)C4C2=O)CC1 (centres unmarked) | 2.17%

Structure (SMILES) | hERG current change (%, negative = inhibition) at 1uM
CC1CCN(CCCCOc2ccc(Cl)cc2)CC1.O=C(O)C(=O)O | -32.6%
Cn1c(Oc2ccc3c(c2)OCO3)nc2c1c(=O)n(Cc1ccccc1)c(=O)n2C | 7.68%
CC(C)(C)OC(=O)NCCC(=O)N/N=C/c1cccc2cccnc12 | 11.4%
CCCCOP(=O)(c1ccc(N(C)C)cc1)C(O)c1ccc(C(C)C)cc1 (centres unmarked) | 12.1%
Cc1cc(Cl)ccc1OCCCC(=O)NCCc1nnc2ccccn12 | 2.77%
CCn1ncc(C2=NOC(C(=O)Nc3cnn(C45CC6CC(CC(C6)C4)C5)c3)C2)c1C (centres unmarked) | 3.56%
CC1(C)CC(=O)c2cnc(NC(=O)Cc3ccc(Cl)cc3)nc2C1 | 9.19%
Cc1ccc(CNS(=O)(=O)c2c(C(=O)N3CCCCCC3)c(C)n(C)c2C)cc1 | 13%
CCOC(=O)c1ccc(NC(=O)CSc2nnc(CNc3ccc(OC)cc3)n2C)cc1 | 10.2%
COc1ccc(C2CC(c3ccc(Cl)cc3Cl)Nc3nc(N)nn32)cc1OC (centres unmarked) | -0.698%
Cc1nn(CCCC(=O)Nc2cnn(Cc3ccc(F)cc3)c2)c(C)c1[N+](=O)[O-] | 11.5%
Cc1ccnc2nc(C(=O)OC(C)C(=O)NCc3ccccc3)nn12 (centres unmarked) | 10.8%
COc1ccc(C)cc1NS(=O)(=O)c1cccc2nonc12 | 2.58%
C/C(CCN1CCCCc2nc(C)c(C)cc21)=N\O[C@@H](C)CN1CCCCc2nc(C)c(C)cc21 | -1.01%
COc1ccc(OC)c(C(O)CNC(=O)CN)c1.Cl (centres unmarked) | 13.1%
Cc1ccc(-c2noc(CSc3nnc(-c4ccccc4)n3C)n2)cc1 | 9.14%
COC(=O)CCCC1=CC2=CC(=O)C(C)(OC(=O)c3cccs3)C(=O)C2=CN1CC(C)C (centres unmarked) | 2.76%
Cc1cc2occ(CC(=O)NNC(=O)c3ccccc3)c2cc1C | 12.2%
CCNc1nc(SCC(=O)Nc2ccccc2)nc(N2CCOCC2)n1 | 13.1%
Cc1cc([N+](=O)[O-])cnc1N1CCOCC1 | 8.64%
CCNS(=O)(=O)c1ccc(CCC(=O)NCc2ccc3c(c2)OCO3)cc1 | 8.39%
COC(=O)COc1ccc(NC(=O)C(c2ccccc2)c2ccccc2)cc1 | 6.63%

Structure (SMILES) | hERG current change (%, negative = inhibition) at 1uM
Cc1sc2nc(CSCC(=O)Nc3ccccc3C#N)[nH]c(=O)c2c1C | 10.2%
CS(=O)(=O)N(CCc1ccccc1)CC(=O)N1CCN(c2ccc(F)cc2)CC1 | -2.09%
Cc1occc1C(=O)NNS(=O)(=O)c1ccc(Cl)cc1 | 11.3%
COC(=O)C(C)Sc1nc2ccsc2c(=O)n1Cc1ccccc1 (centres unmarked) | 1.03%
CC(O)CNC(=O)Cc1cc(=O)[nH]c(=O)[nH]1 (centres unmarked) | 8.83%
CC(C)Oc1ccccc1/C=N/NC(=O)c1ccccc1Cl | 2.32%
O=C(Cn1ncc2c([nH]c3ccccc32)c1=O)NCCc1ccccc1 | 6.68%
CCN(C(=O)COC(=O)c1c(C)nsc1NC)c1ccccc1 | 6.44%
Cc1cc(C(F)(F)F)n2ncc(-c3ccc(F)cc3)c2n1 | 14.1%
Cn1cc(C(=O)N2CCCC(Nc3ccc(F)cc3)C2)c2ccccc21 (centres unmarked) | 10.4%
COc1cccc(C(=O)Nc2ccc(S(=O)(=O)N3CCCCC3)cc2)c1OC | 10.3%
CCS(=O)(=O)N1CCN=C1SCc1cccnc1 | -5.74%
Cc1cccc(-n2ncc3c2CCCC3NC(=O)CN2CCOC2=O)c1C (centres unmarked) | 14.9%
COc1cc(C(=O)NCc2nnc(SCC(=O)Nc3cc(C)on3)o2)cc(OC)c1OC | 8.67%
Cc1ccc(CC(=O)N2CC(C)OC(C)C2)cc1 (centres unmarked) | 12.8%
Cc1ccc(S(=O)(=O)NCC2CCC(C(=O)NCCCN3CCOCC3)CC2)cc1 (centres unmarked) | 15.4%
Cc1ccc(C2C3=C(CC(C)(C)CC3=O)Nc3[nH]c(=S)[nH]c(=O)c32)cc1 (centres unmarked) | 16.1%
Cc1sc(NC(=O)CN(C)C2CCCCC2)nc1-c1ccc2c(c1)CCN2S(=O)(=O)c1ccccc1 | 14%
CC(C)(C)C(=O)/C=c1\s/c(=C\c2ccc(-c3ccc([N+](=O)[O-])cc3)o2)c(=O)n1CC(=O)NC(N)=O | 10.6%
COc1ccc(N2CCN(C(=O)CSc3nc4[nH]ncc4c(=O)n3-c3cccc4ccccc34)CC2)cc1 | 7.98%
